Test results reported in PubChem BioAssay AID1362 (SRMLSC, 2008).
The list shows a part of the results. Further columns of the screen follow, without active or inactive calls. Compounds called inactive in the main read-out are mostly missing here.

Experiment: growth inhibition of WT strain, primary screen, mitochondrial fusion inhibitor project, WT and mutant strains, chemical genetic (AID 1362); further: tested in S. cerevisiae
Details: mitochondrial fusion phenotypic screen, at 10 µM
For `O=c1cc(N2CCCCC2)c(-c2ccccc2)nn1Cc1ccccc1`, the inhibition was 3.64%.
For `OC(CNCc1ccc(Cl)cc1)(c1ccccc1)c1ccc(F)cc1` (configuration not stated), the inhibition was 19.9%.
`CC(=O)c1c(C)[nH]c(C(=O)Nc2nc(-c3ccc(Cl)cc3)cs2)c1C` showed an inhibition of 58.6%.
For `O=C(c1ccc(NC(=S)Nc2ccc(Cl)c(Cl)c2)cc1)N1CCCC1`, the inhibition was 73%.
Work on `O=C(Nc1ccccc1N1CCCCC1)c1cccc([N+](=O)[O-])c1` yielded an inhibition of 40.5%.
For `O=c1c2ccccc2n(Cc2ccc(F)cc2)c(=O)n1C1CCCC1`, the inhibition was 21.1%.
For `Cc1cc(Nc2nc3ccccc3nc2Cl)n(-c2ccccc2C)n1`, the inhibition was 59.9%.
Compound `O=C(COC(=O)Cc1ccc(Br)cc1)NC12CC3CC(CC(C3)C1)C2` has an inhibition of 43.2%.
In the case of `CCOC(=O)c1c(OCC)[nH]c2c1cc(O)c1ccccc12`, the inhibition is reported as 44.4%.
`NC(=O)NCCC1=CCCCC1` showed an inhibition of -3.03%.
Work on `Cc1cc(C)nc(NC(=O)c2ccc(COc3ccccc3Cl)cc2)c1` yielded an inhibition of 28.3%.
With `COc1ccccc1CN=Cc1[nH]c2ccc(Br)c(Cl)c2c1O` the inhibition was 8.52%.
For `Cc1ccn2c(Nc3ccccc3C)c(-c3ccccn3)nc2c1`, the inhibition was 49.1%.
With `CCC(=O)N1CCN(c2ccc(NC(=O)c3ccc([N+](=O)[O-])o3)cc2Cl)CC1` the inhibition was 59.8%.
With `O=C(COC(=O)C12CC3CC(CC(C3)C1)C2)NC12CC3CC(CC(C3)C1)C2` the inhibition was 47.3%.
In the case of `C=CCNC(=S)N(CC)c1cccc2ccccc12`, the inhibition is reported as 48.4%.
Compound `CCCC1CCC(c2ccc(C(=O)NN)cc2)CC1` (configuration not stated) has an inhibition of 83.1%.
`O=C(c1ccc(CSc2ccccc2)cc1)N1CCN(c2ccccc2)CC1` gave an inhibition of 47.5%.
Compound `Cc1ccc(NNC(=O)C(=O)N2CCCCC2)cc1` has an inhibition of 58.3%.
For `S=C(NCCc1ccccc1)NN=C1CCCCCC1`, the inhibition was 54.8%.
For `Cc1ccc(/C=C/c2ccc(=O)n(Cc3ccccc3Cl)n2)cc1`, the inhibition was 36.5%.
In the case of `CC/C(C)=N/Nc1cccc([N+](=O)[O-])c1`, the inhibition is reported as 53.3%.
Work on `NNc1nc2c(Cl)c(Cl)ccc2s1` yielded an inhibition of 72%.
`CCc1ccc(NC(=S)NCc2ccccc2)cc1` showed an inhibition of 35.1%.
Work on `Cc1ccc(S(=O)(=O)Nc2ccc3oc(=O)sc3c2)c(C)c1` yielded an inhibition of 26.1%.
Work on `CCCCOC(=O)CSc1nnc(-c2ccc(Cl)cc2Cl)o1` yielded an inhibition of 53%.
`Clc1nc(-c2cccnc2)nc2scc(-c3ccccc3)c12` showed an inhibition of 61.8%.
Compound `C=C(C)COc1ccc(-c2[nH]ncc2-c2ccccc2)c(O)c1` has an inhibition of 22.7%.
For `Cc1csc(NC(=O)c2cccn2C)n1`, the inhibition was 15.6%.
With `O=C(Nc1ccccc1Cl)c1ccccc1Oc1ccc(C(F)(F)F)cc1[N+](=O)[O-]` the inhibition was 15.1%.
For `O=C(C1=C[C@H](C2CCCCC2)C[C@H](OCc2ccc(CO)cc2)O1)N1CCN(Cc2ccccc2)CC1`, the inhibition was 33.3%.
For `COc1cccc(-c2nc(=S)c3c(o2)CCCC3)c1`, the inhibition was 47.3%.
Compound `CCN1/C(=C/c2cc[n+](C)cc2)C=Cc2cc(C)ccc21` has an inhibition of 47.7%.
`Cc1ccccc1-c1noc(C23CC4CC(CC(C4)C2)C3)n1` gave an inhibition of 76.1%.
For `CCOC(=O)CSc1c(-c2cccs2)[nH]c2ccccc12`, the inhibition was 15.5%.
`CCC(=O)Nc1ccc(-c2nnc(SCc3ccc(C(=O)Nc4nccs4)cc3)n2CC)cc1` showed an inhibition of 8.88%.
With `CCc1nnc(NC(=O)c2ccc(S(=O)(=O)N(CC)Cc3ccccc3)cc2)o1` the inhibition was 53.5%.
For `CC(C)(C)C(=O)NC(=S)NNC(=O)c1sc2ccccc2c1Cl`, the inhibition was 63.7%.
For `c1ccc(N(c2ccccc2)c2nc(-n3ccnc3)nc(-n3ccnc3)n2)cc1`, the inhibition was 96.4%.
`CC(C)CCn1c(N2CCN(c3cccc(Cl)c3)CC2)nc2c1c(=O)[nH]c(=O)n2C` showed an inhibition of 35.6%.
For `O=C(NCc1ccccc1)c1cccc(COc2cccc(Cl)c2)c1`, the inhibition was 31.3%.
`CCCCCc1ccc(OCCCC[n+]2ccccc2)c(CCCCC)c1` showed an inhibition of 85.8%.
With `CC(NC(=O)c1ccc(Br)cc1)c1ccc2c(c1)CCCC2` (configuration not stated) the inhibition was 37.2%.
For `O=C(COc1ccc(Cl)cc1Cl)NNC(=S)NCc1ccco1`, the inhibition was 33.5%.
For `CCN1CCc2nc(NC(=O)c3ccccc3)sc2C1`, the inhibition was 19%.
`CCN1CCN(c2ccc(NC(=O)c3ccc4c(c3)OCO4)cc2)CC1` showed an inhibition of -3.63%.
Compound `CCO[C@H]1OC(C(=O)Nc2ccccc2)=C[C@@H](c2ccc(Br)cc2)[C@@H]1CCCO` has an inhibition of 49.9%.
With `COc1ccc(C(N)=O)cc1NC(=O)c1cccc(F)c1` the inhibition was 27.1%.
Work on `COC(=O)/C(=C(/F)Sc1cc(C)c(O)c(C)c1)C(F)(F)F` yielded an inhibition of 47.4%.
Compound `CC(C)c1ccc(S(=O)(=O)Nc2ccc(SC(F)F)cc2)cc1` has an inhibition of 82.3%.
`N#C/C(=N\Nc1cccc(Cl)c1)C(=O)c1ccccc1` showed an inhibition of 66.6%.
With `Cc1onc(-c2c(F)cccc2Cl)c1C(=O)Nc1sc2c(c1C(N)=O)CCC2` the inhibition was 40.1%.
`Cc1ccccc1NC1=C/C(=N\S(=O)(=O)c2cccs2)c2ccccc2C1=O` showed an inhibition of 63.2%.
`CCOC1(OCC)C(c2ccc(Cl)cc2)C(C#N)(C#N)C1(OCC)OCC` (configuration not stated) showed an inhibition of -24.2%.
For `CSc1nc(N2CCN(c3ccccc3Cl)CC2)c2ccccc2n1`, the inhibition was 39.5%.
For `Clc1cccc(NCc2nnc(SCc3ccc(Cl)cc3Cl)o2)c1`, the inhibition was 9.8%.
With `O=[N+]([O-])c1ccc(C[n+]2cccc3ccc4cccnc4c32)cc1` the inhibition was 49.6%.
